The results in this text go back to the antibiotic and cytotoxicity screens of Wong et al. (2023).

Each structure is given as a SMILES string. The list shows a part of the results.

In the assay the test system is HepG2. Description: cytotoxicity call (relative viability < 0.9). The settings on record: 10 µM.
`COc1ccc(CN(C)C[C@H]2OCCCC[C@@H](C)Oc3ccc(NC(=O)c4ccccc4)cc3C(=O)N([C@H](C)CO)C[C@H]2C)cc1`: the cytotoxicity call is “inactive”. The same measure for `CC(C)(C)C(=O)C[n+]1ccc(C(N)=O)cc1`: “inactive”; for `Cl.[LiH]`: “inactive”; for `O=C(CN1CCOCC1)N[C@@H]1CC[C@@H](CCn2cc(C3CCCC3)nn2)O[C@@H]1CO`: “inactive”. The same measure for `COCCOC(=O)N1C(=O)[C@@]2(c3cc(C#CC4=CCCCC4)ccc31)[C@H](C(=O)N1CCCCCCC1)[C@H]1C(=O)O[C@H](c3ccccc3)[C@H](c3ccccc3)N1[C@@H]2c1ccc(OCCO)cc1`: “inactive”; for `C[C@@H]1CN([C@@H](C)CO)C(=O)c2cccc(NS(C)(=O)=O)c2O[C@H]1CN(C)S(=O)(=O)c1ccc(Cl)cc1`: “inactive”. In the case of `C[C@@H]1CN([C@H](C)CO)C(=O)Cc2cc(NC(=O)Nc3cccc4ccccc34)ccc2O[C@H]1CN(C)C(=O)Nc1ccc2c(c1)OCO2` it was “inactive”; in that of `CN1C(=O)c2cc(NC(=O)Cc3cccs3)ccc2OC[C@H]2O[C@@H](CC(=O)NCCc3ccncc3)CC[C@@H]21`, “inactive”; in that of `Nc1nc(S)c2nc[nH]c2n1`, “active”. Take `O=C(O)CSCC(=O)NC1CCSC1=O` (stereo not given): the cytotoxicity call was “inactive”.

In the case of `Cc1noc(C)c1S(=O)(=O)Nc1ccc2c(c1)CC(=O)N([C@H](C)CO)C[C@H](C)[C@H](CN(C)S(=O)(=O)c1ccc(F)cc1)O2`, the cytotoxicity call is “inactive”. In the case of `CC(C)NC(=O)N(C)C[C@@H]1Oc2c(NS(=O)(=O)c3cn(C)cn3)cccc2C(=O)N([C@H](C)CO)C[C@@H]1C` it was “inactive”; in that of `C[C@H](CO)N1C[C@H](C)[C@H](CN(C)C(=O)CN(C)C)Oc2cc(-c3cncnc3)ccc2S1(=O)=O`, “inactive”; in that of `C[C@@H]1CN([C@H](C)CO)C(=O)Cc2cc(NS(=O)(=O)c3cccs3)ccc2O[C@@H]1CN(C)S(=O)(=O)c1cn(C)cn1`, “inactive”.

Turning to `C[C@H]1CN([C@@H](C)CO)C(=O)c2cc(-c3cccnc3)cnc2O[C@@H]1CN(C)Cc1ccc(-c2ccccc2)cc1`, the cytotoxicity call was “inactive”. On to `C[C@H](CO)N1C[C@H](C)[C@@H](CN(C)S(=O)(=O)c2cn(C)cn2)Oc2cc(C#Cc3ccccc3)ccc2S1(=O)=O`, for which the cytotoxicity call is “inactive”.

For `CCCCCCOC(=O)N=C(N)c1ccc(NCc2nc3cc(C(=O)N(CCC(=O)OCC)c4ccccn4)ccc3n2C)cc1.CS(=O)(=O)O`, the cytotoxicity call was “inactive”. In the case of `C[C@H](CO)N1C[C@H](C)[C@H](CN(C)C(=O)Nc2cccc3ccccc23)Oc2ccc(NC(=O)Nc3ccc(F)cc3)cc2CC1=O` it was “inactive”; in that of `C[C@@H]1CN([C@@H](C)CO)S(=O)(=O)c2ccc(C#Cc3ccc(F)cc3)cc2O[C@@H]1CN(C)CC1CC1`, “inactive”; in that of `O=C(C1=C(O)C(=O)N(c2nccs2)[C@H]1c1cccc(Oc2ccccc2)c1)c1ccc2c(c1)OCCO2`, “inactive”. The same measure for `C[C@H](CO)N1C[C@H](C)[C@@H](CN(C)S(=O)(=O)c2cn(C)cn2)OCc2cnnn2CCCC1=O`: “inactive”.

On to `COc1ccc(S(=O)(=O)Nc2ccc3c(c2)CC(=O)N([C@@H](C)CO)C[C@@H](C)[C@H](CN(C)S(C)(=O)=O)O3)cc1`, for which the cytotoxicity call is “inactive”. In the case of `CCCN(C)C[C@H]1OCCCC[C@@H](C)Oc2ccc(NC(=O)CCC(F)(F)F)cc2C(=O)N([C@@H](C)CO)C[C@H]1C` it was “inactive”. In the case of `C[C@@H]1CCCCO[C@H](CN(C)Cc2ccccc2)[C@@H](C)CN([C@H](C)CO)C(=O)c2cc(NC(=O)Nc3ccc(C(F)(F)F)cc3)ccc2O1` it was “active”. The same measure for `C[C@@H]1CCCCO[C@H](CN(C)C(=O)CCC(F)(F)F)[C@H](C)CN([C@@H](C)CO)C(=O)c2cc(NC(=O)CCC(F)(F)F)ccc2O1`: “inactive”; for `CC(C)NC(=O)Nc1ccc2c(c1)C(=O)N([C@H](C)CO)C[C@H](C)[C@H](CN(C)CC1CCCCC1)OCCCC[C@@H](C)O2`: “inactive”; for `C[C@H](CO)N1C[C@H](C)[C@H](CN(C)C(=O)Nc2ccc3c(c2)OCO3)Oc2c(NS(C)(=O)=O)cccc2C1=O`: “inactive”. Take `Cc1noc(C)c1NC(=O)N(C)C[C@H]1Oc2c(NC(=O)c3ccc(-c4nccs4)cc3)cccc2C(=O)N([C@@H](C)CO)C[C@@H]1C`: the cytotoxicity call was “inactive”. The same measure for `C[C@@H]1CN([C@@H](C)CO)C(=O)c2cc(NC(=O)Nc3ccc(C(F)(F)F)cc3)ccc2O[C@@H](C)CCCCO[C@H]1CN(C)S(=O)(=O)c1ccc(F)cc1`: “inactive”; for `C[C@@H]1CN([C@H](C)CO)C(=O)Cc2cc(NS(C)(=O)=O)ccc2O[C@H]1CN(C)S(=O)(=O)c1cccs1`: “inactive”. The same measure for `O=C(C[C@@H]1C[C@@H]2c3cc(NC(=O)Nc4ccccc4)ccc3O[C@@H]2[C@@H](CO)O1)NCCN1CCCCC1`: “inactive”. In the case of `C[C@@H]1CCCCO[C@H](CN(C)C(=O)NC2CCCCC2)[C@@H](C)CN([C@H](C)CO)C(=O)c2cc(NC(=O)Nc3ccc(F)cc3)ccc2O1` it was “inactive”. With `CN(C)CCCC[C@@H]1NC(=O)[C@@H]2C[C@H](C(=O)NCCCCCCNC(=O)CS)[C@H](c3ccc(O)cc3)N2C1=O`, the cytotoxicity call was “inactive”. In the case of `COCC#Cc1cnc2c(c1)C(=O)N([C@H](C)CO)C[C@@H](C)[C@@H](CN(C)C(C)=O)O2` it was “inactive”. For the compound `Cc1ccc(S(=O)(=O)N(C)C[C@@H]2Oc3ccc(N(C)C)cc3CC(=O)N([C@@H](C)CO)C[C@@H]2C)cc1`, the cytotoxicity call was “active”.

Turning to `C[C@@H]1CN([C@H](C)CO)C(=O)Cc2cc(NS(=O)(=O)c3cccs3)ccc2O[C@@H]1CN(C)Cc1ccc(-c2ccccc2)cc1`, the cytotoxicity call is “inactive”.

Turning to `C[C@@H]1CN([C@H](C)CO)C(=O)c2cc(NS(C)(=O)=O)ccc2O[C@@H](C)CCCCO[C@H]1CN(C)S(=O)(=O)c1cccs1`, the cytotoxicity call was “inactive”.

As to `C[C@H](CO)N1C[C@H](C)[C@@H](CN(C)Cc2ccncc2)Oc2ccc(NS(=O)(=O)c3cn(C)cn3)cc2CC1=O`, the cytotoxicity call is “inactive”. Turning to `C[C@H](CO)N1C[C@H](C)[C@H](CN(C)Cc2ccc(C(=O)Nc3ccccc3N)cc2)Oc2ccc(NC(=O)Cn3cnnn3)cc2C1=O`, the cytotoxicity call was “inactive”. The same measure for `CC(C(=O)O)c1ccc2c(c1)CC(=O)c1ccccc1S2` (stereo not given): “inactive”.
